According to the supplement of paper PMC4967469:

Key:
Experiment in all cases: Viability of human cancer cell lines after 72 h of drug (GDSC screen)
[1] = compound: C=C1C(=O)O[C@H]2[C@H]1CC/C(C)=C/CC[C@@]1(C)O[C@@H]21 [Parthenolide]; conditions: top dose 5 µM
Description: (§1)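 Human cancer cell lines in 384-well plates, medium with 10% serum, drug for 72 h over a 256-fold dose range (nine 2-fold or five 4-fold steps up to the top dose). Adherent lines were fixed and stained with the nucleic acid dye Syto60, suspension lines read with resazurin; signal relative to control wells, capped at 0 and 100%. One two-parameter sigmoid per drug and line, fitted in a mixed model over all curves with the slope shared within a line.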

[2] = compound: C=CCc1cccc(/C=N/NC(=O)CN2CCN(Cc3ccccc3)CC2)c1O [PAC-1]; conditions: top dose 2.56 µM
Description: as §1

[3] = compound: COc1cc2ncn(-c3cc(OCc4ccccc4S(C)(=O)=O)c(C#N)s3)c2cc1OC [KIN001-135]; conditions: top dose 5 µM; top dose inferred
Description: as §1

[4] = compound: NC(=O)[C@@H](CCC(F)(F)F)N(Cc1ccc(-c2ncon2)cc1F)S(=O)(=O)c1ccc(Cl)cc1 [BMS-708163]; conditions: top dose 5 µM; screen: GDSC drug entry 1072; top dose inferred
Description: as §1

Row | Cell Line | AUC [1] | IC50 [1] | AUC [2] | IC50 [2] | AUC [3] | IC50 [3] | AUC [4] | IC50 [4]
1 | SNU-C1 (large intestine, suspension) | 0.975 | > 5 µM | 0.93 | > 2.56 µM | 0.936 | > 5 µM | 0.976 | > 5 µM
2 | MSTO-211H (mesothelioma, adherent) | 0.99 | > 5 µM | 0.984 | > 2.56 µM | 0.988 | > 5 µM | 0.991 | > 5 µM
3 | KCL-22 (chronic myeloid leukaemia, suspension) | 0.919 | > 5 µM | 0.886 | 2.04 µM | 0.991 | > 5 µM | 0.991 | > 5 µM
4 | DSH1 (bladder, adherent) | 0.989 | > 5 µM | 0.986 | > 2.56 µM | 0.989 | > 5 µM | 0.959 | > 5 µM
5 | OCI-LY-19 (B-cell lymphoma, suspension) | 0.822 | 2.62 µM | 0.73 | 0.678 µM | 0.987 | > 5 µM | 0.986 | > 5 µM
6 | NCI-H510A (small cell lung carcinoma, semi-adherent) | 0.988 | > 5 µM | 0.983 | > 2.56 µM | 0.985 | > 5 µM | 0.989 | > 5 µM
7 | LS-513 (large intestine, adherent) | 0.987 | > 5 µM | 0.968 | > 2.56 µM | 0.986 | > 5 µM | 0.984 | > 5 µM
8 | SK-MM-2 (myeloma, suspension) | 0.959 | > 5 µM | 0.931 | > 2.56 µM | 0.985 | > 5 µM | 0.984 | > 5 µM
9 | CW-2 (large intestine, adherent) | 0.989 | > 5 µM | 0.988 | > 2.56 µM | 0.986 | > 5 µM | 0.989 | > 5 µM
10 | SF126 (glioma, adherent) | 0.913 | > 5 µM | 0.963 | > 2.56 µM | 0.986 | > 5 µM | 0.977 | > 5 µM
11 | EW-18 (Ewing sarcoma, suspension) | 0.931 | > 5 µM | 0.923 | > 2.56 µM | 0.981 | > 5 µM | 0.985 | > 5 µM
12 | no-11 (glioma, adherent) | 0.917 | > 5 µM | 0.98 | > 2.56 µM | 0.939 | > 5 µM | 0.93 | > 5 µM
13 | EW-16 (Ewing sarcoma, adherent) | 0.984 | > 5 µM | 0.826 | 1.64 µM | 0.976 | > 5 µM | 0.884 | > 5 µM
14 | COLO-800 (melanoma, adherent) | 0.984 | > 5 µM | 0.984 | > 2.56 µM | 0.97 | > 5 µM | 0.987 | > 5 µM
15 | D-283MED (medulloblastoma, adherent) | 0.973 | > 5 µM | 0.99 | > 2.56 µM | 0.985 | > 5 µM | 0.958 | > 5 µM
16 | Daudi (Burkitt lymphoma, suspension) | 0.886 | 4.29 µM | 0.792 | 0.997 µM | 0.983 | > 5 µM | 0.976 | > 5 µM
17 | SUP-T1 (T-cell lymphoblastic leukaemia, suspension) | 0.987 | > 5 µM | 0.795 | 1.06 µM | 0.977 | > 5 µM | 0.984 | > 5 µM
18 | MRK-nu-1 (breast, suspension) | 0.802 | 2.22 µM | 0.939 | > 2.56 µM | 0.99 | > 5 µM | 0.99 | > 5 µM
19 | SUP-B15 (lymphoblastic leukaemia, suspension) | 0.867 | 4.21 µM | 0.841 | 1.68 µM | 0.97 | > 5 µM | 0.971 | > 5 µM
20 | MOLM-13 (acute myeloid leukaemia, suspension) | 0.853 | 3.54 µM | 0.884 | 2.47 µM | 0.945 | > 5 µM | 0.984 | > 5 µM
21 | NCI-H446 (small cell lung carcinoma, semi-adherent) | 0.967 | > 5 µM | 0.965 | > 2.56 µM | 0.954 | > 5 µM | 0.966 | > 5 µM
22 | SW684 (fibrosarcoma, adherent) | 0.975 | > 5 µM | 0.947 | > 2.56 µM | 0.975 | > 5 µM | 0.878 | > 5 µM
23 | P32-ISH (Burkitt lymphoma, suspension) | 0.822 | 2.03 µM | 0.738 | 0.617 µM | 0.995 | > 5 µM | 0.994 | > 5 µM
24 | NCI-H1436 (small cell lung carcinoma, suspension) | 0.873 | > 5 µM | 0.976 | > 2.56 µM | 0.985 | > 5 µM | 0.986 | > 5 µM
25 | K5 (thyroid, adherent) | 0.912 | > 5 µM | 0.952 | > 2.56 µM | 0.988 | > 5 µM | 0.984 | > 5 µM
26 | EB2 (Burkitt lymphoma, suspension) | 0.988 | > 5 µM | 0.832 | 1.42 µM | 0.986 | > 5 µM | 0.989 | > 5 µM
27 | CPC-N (small cell lung carcinoma, suspension) | 0.985 | > 5 µM | 0.982 | > 2.56 µM | 0.962 | > 5 µM | 0.971 | > 5 µM
28 | HC-1 (hairy cell leukaemia, suspension) | 0.863 | 4.06 µM | 0.814 | 1.33 µM | 0.979 | > 5 µM | 0.985 | > 5 µM
29 | HCC1500 (breast, adherent) | 0.98 | > 5 µM | 0.977 | > 2.56 µM | 0.977 | > 5 µM | 0.983 | > 5 µM
30 | COLO-824 (breast, adherent) | 0.988 | > 5 µM | 0.897 | > 2.56 µM | 0.972 | > 5 µM | 0.978 | > 5 µM

By IC50 is meant the dose at which the fit gives 50% viability; a limit (>, <) means that the fit lies beyond the doses tested. AUC sums up the same curve from the lowest dose to the 256-fold higher top dose; it is 1 without any effect and falls as sensitivity rises. For part of these data: Any top dose called inferred is not printed in the source and was worked back from the curve model. For part of these data: Where an entry number is given, a second screen of the drug exists; the two often differ.
